B1: PDGFRα wild type truncated after residue R979, fused to nanoluciferase or HaloTag [not stated] / itself (parent)
chain: QLSLPSILPNENEKVVQLNSSFSLRCFGESEVSWQYPMSEEESSDVEIRNEENNSGLFVTVLEVSSASAAHTGLYTCYYNHTQTEENELEGRHIYIYVPDPDVAFVPLGMTDYLVIVEDDDSAIIPCRTTDPETPVTLHNSEGVVPASYDSRQGFNGTFTVGPYICEATVKGKKFQTIPFNVYALKATSELDLEMEALKTVYKSGETIVVTCAVFNNEVVDLQWTYPGEVKGKGITMLEEIKVPSIKLVYTLTVPEATVKDSGDYECAARQATREVKEMKKVTISVHEKGFIEIKPTFSQLEAVNLHEVKHFVVEVRAYPPPRISWLKNNLTLIENLTEITTDVEKIQEIRYRSKLKLIRAKEEDSGHYTIVAQNEDAVKSYTFELLTQVPSSILDLVDDHHGSTGGQTVRCTAEGTPLPDIEWMICKDIKKCNNETSWTILANNVSNIITEIHSRDRSTVEGRVTFAKVEETIAVRCLAKNLLGAENRELKLVAPTLRSELTVAAAVLVLLVIVIISLIVLVVIWKQKPRYEIRWRVIESISPDGHEYIYVDPMQLPYDSRWEFPRDGLVLGRVLGSGAFGKVVEGTAYGLSRSQPVMKVAVKMLKPTARSSEKQALMSELKIMTHLGPHLNIVNLLGACTKSGPIYIITEYCFYGDLVNYLHKNRDSFLSHHPEKPKKELDIFGLNPADESTRSYVILSFENNGDYMDMKQADTTQYVPMLERKEVSKYSDIQRSLYDRPASYKKKSMLDSEVKNLLSDDNSEGLTLLDLLSFTYQVARGMEFLASKNCVHRDLAARNVLLAQGKIVKICDFGLARDIMHDSNYVSKGSTFLPVKWMAPESIFDNLYTTLSDVWSYGILLWEIFSLGGTPYPGMMVDSTFYNKIKSGYRMAKPDHATSEVYEIMVKCWNSEPEKRPSFYHLSEIVENLLPGQYKKSYEKIHLDFLKSDHPAVAR

Variants of: B1
Test: NanoBRET
Conditions: with itself; Control (no PDGF-BB); living cells; mean of four independent experiments; parent: 1; read off a plot

Variant | response [BRET Ratio]
chain 1 K362I | 1.9

Same assay, conditions: with itself; PDGF-BB stimulated; living cells; mean of four independent experiments; parent: 2; read off a plot

Variant | response [BRET Ratio]
chain 1 K362I | 1.8

Reference: publication PMC10965988
